Source: PMC6919601, “Identification of Plasmodium dipeptidyl aminopeptidase allosteric inhibitors by high throughput screening” (PLoS ONE, 2019)
Screen size: about 110,000 compounds; about 230 (0.21%) showed an effect of 50% or more. The list shows a part of the results.

Target: DPAP1 (Plasmodium falciparum, UniProt Q8IIJ9)
Assay: primary screen, percent inhibition; read by cleavage of a fluorogenic dipeptide substrate; higher = more effect of the substance
Design: species or system P. falciparum D10 trophozoite lysates; single well
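Note: 30 min substrate incubation versus DMSO and 10 µM JCP410 controls.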

Chain of DPAP1 (Q8IIJ9 whole entry, looked up): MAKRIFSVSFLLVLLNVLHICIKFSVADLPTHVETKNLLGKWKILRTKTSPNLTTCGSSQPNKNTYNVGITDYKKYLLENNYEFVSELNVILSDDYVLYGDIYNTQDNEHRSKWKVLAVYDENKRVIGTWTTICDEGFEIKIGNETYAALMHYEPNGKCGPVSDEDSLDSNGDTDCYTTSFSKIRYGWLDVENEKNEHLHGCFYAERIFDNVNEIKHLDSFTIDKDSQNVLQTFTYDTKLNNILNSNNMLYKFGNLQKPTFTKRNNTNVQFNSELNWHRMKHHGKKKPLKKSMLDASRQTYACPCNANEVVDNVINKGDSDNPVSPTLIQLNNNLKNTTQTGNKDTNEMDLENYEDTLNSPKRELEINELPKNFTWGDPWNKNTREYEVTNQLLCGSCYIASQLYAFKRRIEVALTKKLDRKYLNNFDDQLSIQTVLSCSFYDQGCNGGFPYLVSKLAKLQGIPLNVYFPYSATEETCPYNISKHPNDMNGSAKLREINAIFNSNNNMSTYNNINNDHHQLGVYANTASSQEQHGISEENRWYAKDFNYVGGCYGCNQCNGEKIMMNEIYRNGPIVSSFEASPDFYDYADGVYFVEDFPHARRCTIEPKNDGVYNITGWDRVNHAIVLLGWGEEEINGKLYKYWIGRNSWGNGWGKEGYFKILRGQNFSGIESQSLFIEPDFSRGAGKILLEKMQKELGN

For `N=C1/C(=C/c2coc3ccccc3c2=O)C(=O)N=C2SC=C(c3ccc(F)cc3)N12`, which “% Inhibition @ 10 uM” value is on record?
The value was 1.15%.

For `COc1ccc(CC(=O)N2CCC3(CC2)N=C(c2ccc(C)cc2)C(=O)N3)cc1OC`, which “% Inhibition @ 10 uM” value is on record?
Its value is -3.47%.

For `Cc1ccc2nsnc2c1S(=O)(=O)NCCc1c(C)[nH]c2ccccc12`, which “% Inhibition @ 10 uM” value is on record?
The value was -0.671%.

With `Cc1nnc(NC(=O)CSc2nc(-c3ccccc3C)ns2)s1` as the compound, how does the “% Inhibition @ 10 uM” value read?
Its value is -0.959%.

For `CC(=O)N1CCc2c(sc3c2c(=O)n(Cc2ccccc2)c(=O)n3Cc2ccccc2C)C1`, which “% Inhibition @ 10 uM” value is on record?
Its value is -1.66%.

For `CCc1ccc(CNCCc2ccccc2OC)cc1`, which “% Inhibition @ 10 uM” value is on record?
The value was 9.1%.

Which “% Inhibition @ 10 uM” value does the source give for `Cc1nc2nc(C)c(CCC(=O)NCCCc3ccccc3)c(C)n2n1` here?
The value was -0.465%.

With `O=C(CCNS(=O)(=O)c1ccc2nc(O)ccc2c1)NCCc1ccc(Cl)cc1` as the compound, how does the “% Inhibition @ 10 uM” value read?
Its value is -6.2%.

How did the “% Inhibition @ 10 uM” value turn out when `COc1cc(C(=O)Nc2cc(C)cc(C)c2)ccc1OC(F)F` was run?
Its value is -5.81%.

`O=[N+]([O-])c1ccc(S(=O)(=O)Nc2ccccc2-c2ccccc2)cc1` was tested. Which “% Inhibition @ 10 uM” value did it give?
The value was -2.77%.

With `CCOC(=O)c1c(C)n(C)c2ccc(OCC(O)Cn3nc(C)c(Br)c3C)cc12` (stereo not shown) as the compound, how does the “% Inhibition @ 10 uM” value read?
Its value is -3.13%.

How did the “% Inhibition @ 10 uM” value turn out when `Cc1ccsc1C(=O)N1CCN(c2ccccn2)CC1` was run?
Its value is -10.2%.

`Fc1ccc2c(c1)C=Cc1ccccc1S2` was tested. Which “% Inhibition @ 10 uM” value did it give?
The value was -2.07%.

For `CC(=O)n1cc(-c2ccncc2)c2ccccc21`, which “% Inhibition @ 10 uM” value is on record?
Its value is -5.48%.

Which “% Inhibition @ 10 uM” value does the source give for `CC(=O)OC1(C#CCN2CCOCC2)CCCCC1` here?
Its value is 3.01%.

Which “% Inhibition @ 10 uM” value does the source give for `CCCNc1nc(-c2ccc(C)cc2)cs1` here?
Its value is 3.33%.

Which “% Inhibition @ 10 uM” value does the source give for `CCCc1[nH]nc2c1C(c1ccc(Cl)cc1Cl)C(C#N)=C(N)O2` (stereo not shown) here?
Its value is 4.08%.

How did the “% Inhibition @ 10 uM” value turn out when `Cc1cc(NC(=O)CN2CCCCC2C)nc2c1c(=O)oc1ccccc12` (stereo not shown) was run?
Its value is -4.76%.

With `O=c1cc2nc(-c3ccco3)nc(SCc3ccccc3)n2[nH]1` as the compound, how does the “% Inhibition @ 10 uM” value read?
Its value is -4.36%.

How did the “% Inhibition @ 10 uM” value turn out when `CCOC(=O)c1cc2c(C)n(CC)c(C)c2ccc1=O` was run?
Its value is -0.267%.

How did the “% Inhibition @ 10 uM” value turn out when `Cc1cc(C)c(C#N)c(SCCC(=O)Nc2ccc(F)cc2)n1` was run?
The value was 2.01%.

For `COc1ccc2nc(NC(=O)CN(C)S(=O)(=O)c3cccs3)sc2c1`, which “% Inhibition @ 10 uM” value is on record?
Its value is 1.09%.

For `CCOc1cc(CN2CCN(c3cccc(Cl)c3)CC2)ccc1OC`, which “% Inhibition @ 10 uM” value is on record?
The value was 4.57%.

For `COC(=O)c1cc2oc(C)cc2n1Cc1ccc(F)cc1Cl`, which “% Inhibition @ 10 uM” value is on record?
Its value is -6.07%.

How did the “% Inhibition @ 10 uM” value turn out when `CCOc1nc(NC(=O)NS(=O)(=O)c2ccccc2C(=O)OC)nc(-c2ccccc2)n1` was run?
The value was -2.5%.

Which “% Inhibition @ 10 uM” value does the source give for `COc1ccc(NS(=O)(=O)c2cccc(S(=O)(=O)c3ccc(Cl)c(Cl)c3)c2)cc1` here?
The value was -3.78%.

With `CCc1nn(CCCC(=O)NCCCN2C(C)CCCC2C)c(=O)c2cc3occc3n12` (stereo not shown) as the compound, how does the “% Inhibition @ 10 uM” value read?
Its value is -0.281%.

`O=S(=O)(c1ccc(Cl)cc1)N1CCc2ccccc2C1` was tested. Which “% Inhibition @ 10 uM” value did it give?
The value was 1.35%.
